# Measured values reported in the supplement of paper PMC12355420.
# The other results are listed elsewhere or left out. Cut-off read from the data, not from the text of the source: active = 0.5 or less and inactive = the rest. Single values are uncertain, as repeats are few or missing.
# Columns and labels:
# Details in all cases: 50 µM; 24 h
# [1] = tested on: HeLa VPS33A reporter cells; test: relative cell viability (CellMask signal) vs DMSO (fraction of DMSO); higher = less cytotoxic;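 note: primary screen of an FDA-approved drug library in HeLa reporter cells in 96-well format, CellMask signal normalized to DMSO-treated wells set as 1, under 0.5 deemed highly cytotoxic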
# [2] = tested on: HeLa VPS33A R498W KI + HA-SDC1-FLAG; test: relative GAG core protein HA-SDC1 amount per cell number vs DMSO (fraction of DMSO); higher = more SDC1 (GAG core protein);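 note: HA-SDC1 level read out by In-Cell Western staining with an anti-HA antibody against the N-terminal tag, screening FDA-approved library drugs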
# [3] = tested on: HeLa VPS33A KO + NLuc-VPS33A R498W; test: relative mutant VPS33A R498W amount (NanoLuc luminescence) vs DMSO (fraction of DMSO); HeLa model of a glycosaminoglycan (GAG) storage disease; KI is knock-in and KO knock-out; SDC1 is syndecan 1; higher = higher mutant VPS33A level;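 note: screen of an FDA-approved drug library, NanoLuc luminescence read after lysing the treated cells, taken as a measure of mutant VPS33A protein stability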
Structure (SMILES),relative cell viability [1],relative GAG core protein HA-SDC1 amount per cell number [2],relative mutant VPS33A R498W amount [3]
Cc1cccc(-c2nn3c(c2-c2ccnc4ccc(C(N)=O)cc24)CCC3)n1,1.44,inactive: 1.56,0.712
Cc1cccc(C)c1OCC(=O)N[C@@H](Cc1ccccc1)[C@@H](O)C[C@H](Cc1ccccc1)NC(=O)[C@H](C(C)C)N1CCCNC1=O [Lopinavir],0.618,inactive: 0.565,0.504
Cc1nccn1CC1CCc2c(c3ccccc3n2C)C1=O (stereo not drawn) [Ondansetron],0.95,inactive: 0.953,1.14
CS(=O)(=O)c1ccc(C2=C(c3ccccc3)C(=O)OC2)cc1 [Rofecoxib],1.44,inactive: 0.587,1.14
CCCCCCOC(=O)NC(=N)c1ccc(NCc2nc3cc(C(=O)N(CCC(=O)OCC)c4ccccn4)ccc3n2C)cc1,1.3,inactive: 1.09,0.15
"Cc1[nH]c(/C=C2\C(=O)Nc3ccccc32)c(C)c1CCC(=O)O [TSU-68 (SU6668,Orantinib)]",0.949,inactive: 0.706,0.602
CC(C)CC(N)=O [Isovaleramide],0.923,inactive: 1.06,1.18
NC(=O)NO [Hydroxyurea],1,inactive: 0.938,1.04
Cc1oncc1C(=O)Nc1ccc(C(F)(F)F)cc1 [Leflunomide],1.2,inactive: 1.21,0.774
Oc1ccccc1O [Pyrocatechol],1.07,inactive: 0.871,1.4
O=c1[nH]cc(F)c(=O)[nH]1 [Fluorouracil (Adrucil)],1.19,inactive: 0.906,0.645
